Assay results taken from publication PMC4336329 (PLoS ONE, 2015).
Screen size: about 310,000 compounds; about 14,000 (4.5%) showed an effect of 50% or more. Effects have a minus sign here. The list shows a part of the results.

target: human ether-à-go-go-related gene (hERG) potassium channel (human, UniProt Q12809); experiment: primary screen, population patch clamp on CHO cells stably expressing hERG
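Note: peak tail current of the secondary pulse compared with the same well before compound.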

Sequence of human ether-à-go-go-related gene (hERG) potassium channel (Q12809 whole entry, looked up): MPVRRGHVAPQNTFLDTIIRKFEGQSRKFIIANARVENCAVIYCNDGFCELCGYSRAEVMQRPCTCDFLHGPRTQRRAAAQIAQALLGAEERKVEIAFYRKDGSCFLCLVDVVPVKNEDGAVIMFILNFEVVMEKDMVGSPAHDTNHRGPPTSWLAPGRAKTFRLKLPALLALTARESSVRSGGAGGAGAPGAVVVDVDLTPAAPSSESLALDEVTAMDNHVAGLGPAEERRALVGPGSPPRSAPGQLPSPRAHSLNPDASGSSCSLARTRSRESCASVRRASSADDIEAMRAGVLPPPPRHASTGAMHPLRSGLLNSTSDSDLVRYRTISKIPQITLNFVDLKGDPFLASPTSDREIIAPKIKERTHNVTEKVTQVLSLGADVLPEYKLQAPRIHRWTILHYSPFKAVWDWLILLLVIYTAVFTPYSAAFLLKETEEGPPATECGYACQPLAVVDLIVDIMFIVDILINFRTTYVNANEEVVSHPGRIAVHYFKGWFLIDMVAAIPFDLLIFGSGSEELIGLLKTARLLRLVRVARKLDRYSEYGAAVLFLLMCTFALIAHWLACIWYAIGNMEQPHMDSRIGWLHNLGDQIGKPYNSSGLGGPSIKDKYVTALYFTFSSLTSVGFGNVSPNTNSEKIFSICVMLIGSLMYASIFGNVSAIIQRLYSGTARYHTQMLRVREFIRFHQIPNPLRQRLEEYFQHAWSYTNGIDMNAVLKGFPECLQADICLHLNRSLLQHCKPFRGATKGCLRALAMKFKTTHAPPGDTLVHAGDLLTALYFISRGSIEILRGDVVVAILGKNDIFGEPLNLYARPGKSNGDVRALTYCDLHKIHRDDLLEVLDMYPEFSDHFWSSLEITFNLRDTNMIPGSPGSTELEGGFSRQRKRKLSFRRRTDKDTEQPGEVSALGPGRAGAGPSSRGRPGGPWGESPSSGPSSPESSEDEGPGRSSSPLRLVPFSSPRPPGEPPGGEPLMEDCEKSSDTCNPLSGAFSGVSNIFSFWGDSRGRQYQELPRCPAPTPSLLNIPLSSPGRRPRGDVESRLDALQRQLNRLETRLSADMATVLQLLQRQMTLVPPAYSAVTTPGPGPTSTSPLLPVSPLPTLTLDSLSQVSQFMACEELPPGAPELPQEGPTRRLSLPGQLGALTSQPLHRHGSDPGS

Row | Structure (SMILES) | hERG current change (%, negative = inhibition) at 10uM [%]
1 | CC(C)N(CCNC(=O)c1cn(C)c2ccc(S(=O)(=O)N(C)C)cc2c1=O)Cc1ccccc1 | -19.4
2 | OC1(c2cn(Cc3ccccc3)nn2)CCCCC1 | 5.04
3 | CC1Cc2ccccc2N1C(=O)CSc1nnc(C2CC2)n1C (stereo not drawn) | 17.6
4 | CC(OC(=O)c1cccc(S(=O)(=O)N2CCCC2)c1)C(=O)c1ccccc1 (stereo not drawn) | 3.47
5 | O=C(COC(=O)c1ccccn1)NNC(=O)c1ccc([N+](=O)[O-])cc1 | -5.1
6 | O=C(Cc1nn[nH]n1)NCc1ccccc1Cl | -26.7
7 | CCN(c1ccccc1)S(=O)(=O)c1ccc(Cl)c(C(=O)OCC(=O)c2[nH]c(C)c(C(C)=O)c2C)c1 | -22.6
8 | CC(C)N(CCO)C(=O)C(c1ccccc1)c1ccccc1 | 1.24
9 | CC1NC(=O)N(C)[C@@H]2NC(=O)N(C)C(c3ccc([N+](=O)[O-])cc3)[C@@H]12 (stereo partly drawn) | 7.29
10 | CSCCC(NC(=O)c1ccco1)C(=O)N1CCN(Cc2ccccc2)CC1 (stereo not drawn) | -30.6
11 | CC1(C)CC2CC(C)(CN2Cc2c(O)ccc3ccccc23)C1 (stereo not drawn) | -49.2
12 | O=C(NCCC1=CCCCC1)c1cc(COc2c(F)cccc2F)on1 | 9.37
13 | Cc1noc(C(=O)Nc2c(C)nn(Cc3ccccc3)c2C)c1Cl | 4.71
14 | Cc1ccc2nc(SCc3cn4c(C)cc(C)nc4n3)[nH]c2c1 | -20.9
15 | COc1ccc(N(C)C2=NS(=O)(=O)c3ccccc32)cc1 | 6.85
16 | CC(C)(CO)CNC(=O)CC1C(=O)NCCN1CC(c1ccccc1)c1ccccc1 (stereo not drawn) | 23.3
17 | Cc1cc(Cl)c(S(=O)(=O)N2CCN(c3ccccn3)CC2)cc1OCC(N)=O | 17.6
18 | COc1ccc(CN2CCNC(=O)C2CC(=O)NCc2cc(C)n(C)n2)c(F)c1 (stereo not drawn) | 7.8
19 | O=C(Nc1cccc(F)c1)C1CC(=O)N(c2ccc(Cl)cc2)C1 (stereo not drawn) | -13.6
20 | Nc1n[nH]c(-c2ccccc2)n1 | 2.6
21 | CCN1CCN(C(=O)CN2C(=O)c3ccccc3S2(=O)=O)CC1.Cl | -7.48
22 | COc1ccc(CNC(=O)c2cc(C)nc3ccccc23)cc1OC | 8.87
23 | CCc1cccc(CC)c1NC(=O)C(NS(=O)(=O)c1cccs1)c1ccccc1 (stereo not drawn) | 7.4

Row | Structure (SMILES) | hERG current change (%, negative = inhibition) at 10uM [%]
24 | O=C(CCN1C(=O)C2C3C=CC(C3)C2C1=O)NC1CCCCC1 (stereo not drawn) | 11.1
25 | Cc1ccc2nc3n(c(=O)c2c1)-c1cc(Cl)ccc1C(=O)NC3Cc1ccccc1 (stereo not drawn) | 22
26 | Cc1nn(C)cc1CNC(=O)C1CCC(=O)N(CC2CCCCC2)C1 (stereo not drawn) | -8.4
27 | O=C1Nc2ccc(Br)cc2/C1=C/c1ccc(C(=O)O)cc1 | 17.3
28 | O=C(NC1CCC(O)CC1)c1cc(-c2ccco2)nc2ccccc12 (stereo not drawn) | 10.5
29 | CCCCCCN1C=CC(=C2C(=O)c3ccccc3C2=O)C=C1 | 10.5
30 | Cc1ccccc1NC(=S)N(CCN(C)C)C(C)c1cccnc1 (stereo not drawn) | -50.1
31 | O=C(O)CCCCCCCCCC[n+]1ccccc1.[Br-] | 16
32 | O=C(CN1C(=O)/C(=C/c2ccc(C(F)(F)F)cc2)Sc2ccccc21)NCCCN1CCOCC1 | -65.6
33 | COC(=O)CC(NC(=O)c1ccc(C)cc1)c1ccc2c(c1)OCO2 (stereo not drawn) | 0.217
34 | Cc1ccc([N+](=O)[O-])cc1S(=O)(=O)N1CCNCC1 | 12.3
35 | COc1ccc(C(O)Cc2nccn2C)cc1 (stereo not drawn) | -1.22
36 | CCc1nc(SCC(=O)NCCc2ccc(OC)c(OC)c2)c2c(=O)n(C)c(=O)n(C)c2n1 | -5.53
37 | CCOc1ccc(NC(=O)C2C3c4ccccc4C(c4ccccc43)C2C(=O)O)cc1 (stereo not drawn) | 33.2
38 | Cc1cccc(-n2c(CN3C(=O)c4ccccc4C3=O)nc3ccccc3c2=O)n1 | 6.38
39 | O=C(CC1CCCCC1)NCc1ccc(Cl)cc1 | 4.37
40 | Cc1ccccc1C(=O)Nc1nc(-c2cccnc2)cs1 | 34.9
41 | CCCNC(=O)C(=O)Nc1cc2c3c(c1)CCC(=O)N3CCC2 | -15.4
42 | Cc1ccc(NC(=O)CN(C)C(=O)/C=C/c2cccc(F)c2)cc1 | -8.26
43 | Cc1ccc(-c2csc(N(CCc3ccccc3)C(=O)COc3ccccc3)n2)cc1 | 15.1
44 | O=C(O)c1ccccc1N=N/C(=N/Nc1cc(S(=O)(=O)[O-])ccc1O)c1ccccc1.[Na+] | 10.5
45 | CC[C@H](C)C(C(=O)N1CCN(C(=O)OC(C)(C)C)CC1)n1cc(C(CC(C)C)NC(=O)OC(C)(C)C)nn1 (stereo partly drawn) | -0.263
